Experimental data taken from PubChem BioAssay AID686978 (National Center for Advancing Translational Sciences (NCATS), 2013).
About 64,000 (15%) of roughly 420,000 compounds were called active. Inconclusive results, whose numbers are uncertain, are shown with a selection of clear calls. Calls come from the whole dose curve; as a rule, active = well fitted inhibition curve with a large enough effect; inconclusive = small, poorly fitted or top-dose-only effect; inactive = flat fitted curve, though single readings scatter. No potency is given beside an inconclusive call; the fits are too rough.

Assay: qHTS for Inhibitors of human tyrosyl-DNA phosphodiesterase 1 (TDP1): qHTS in cells in absence of CPT; note: nearly all actives have a fitted effect of over 55% in size
Settings: DT40 Tdp1-/- hTDP1 cells, no CPT, ATP luminescence, 48 h; activity change, negative = growth inhibition: at 46.2 µM (top of the series) unless noted
Outline: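 Chicken DT40 Tdp1-/- cells stably complemented with human TDP1 were seeded at 400 cells/well with DMSO in place of 20 nM camptothecin. After compound pinning, cells grew at least 48 hr at 37 °C; viability read by CellTiter-Glo luminescence.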
% is set by controls: 0 for no effect and ±100 for the full control effect; potency is the fitted concentration of half-maximal effect; tags give direction and shape of the fitted curve.

Row | SMILES | Potency | activity change, negative = growth inhibition
1 | O=C(COc1ccc2c(c1)C(=O)CC1(CCCCC1)O2)NCc1ccccn1 | inconclusive [inhibitor, single point] | 
2 | CCN(C(=O)c1ccc2c(Cl)c3c(nc2c1)CCC3)c1ccc(C)c(C)c1 | active: 20.6 µM | 
3 | CN1C(=O)C(O)(CC(=O)/C=C\c2ccc3c(c2)OCO3)c2ccccc21 (centres undefined) | inconclusive [inhibitor, single point] | 
4 | Cc1cc(C(=O)N2CCCc3ccccc32)ccc1[N+](=O)[O-] |  | inactive: -24.3%
5 | Cc1ccc(NC(=O)CCCc2nc(-c3ccco3)no2)cc1Cl | inconclusive [inhibitor, single point] | 
6 | CC(C)C(N)c1csc(NC(=O)Nc2ccccc2C(C)(C)C)n1 (centres undefined) | inconclusive [inhibitor, single point] | 
7 | CC(=O)/C(=N\Nc1ccccc1Cl)Sc1cccc2cccnc12 |  | inactive: -91.9%
8 | CCOC(=O)C1=C(C)N(C)C(=S)NC1c1ccccc1Cl (centres undefined) |  | inactive: 1.74%
9 | COc1ccccc1NC(=O)N(Cc1ccc2c(c1)OCO2)Cc1nc2ccccc2c(=O)[nH]1 | active: 12.6 µM | 
10 | Cc1ccc(N2CC(NC(=O)C3CC3)CC2=O)cc1 (centres undefined) |  | inactive: 0.0065%
11 | Cc1ccc(C)c(NC(=O)Cc2ccc(S(=O)(=O)N3CCCCC3)s2)c1 | inconclusive [inhibitor, single point] | 
12 | CC(C)CCOc1ccc(C(=O)NCC2OCCc3ccccc32)cc1 (centres undefined) | inconclusive [inhibitor, single point] | 
13 | COc1ccc(-c2noc(CCC(=O)N(C)c3cc(Cl)ccc3OC)n2)cc1 |  | inactive: -29.2%
14 | CC(=O)Nc1ccc(S(=O)(=O)NC2CCCCCC2)cc1 | inconclusive [inhibitor, single point] | 
15 | Cc1ccc(C2=NNC(=O)C(P(=O)(c3ccccc3)c3ccccc3)C2)cc1 (centres undefined) | inconclusive [inhibitor, single point] | 
16 | CC(C)n1c(-c2ccc(C(C)(C)C)cc2)n[nH]c1=S | inconclusive [inhibitor, single point] | 
17 | CCOc1ccc(CCNC(=O)c2nn(C)c3c2CS(=O)(=O)c2ccccc2-3)cc1OCC | inconclusive [inhibitor, single point] | 
18 | Cc1ccccc1NC(=S)NC(C)C(c1cccs1)N1CCOCC1 (centres undefined) | inconclusive [inhibitor, single point] | 
19 | Cc1ccc(S(=O)(=O)NCCNc2ccc([N+](=O)[O-])cc2C(F)(F)F)cc1 | inconclusive [inhibitor, single point] | 
20 | Cc1cccc(C(=O)Nc2sc(C(=O)N3CCCC3)c(C)c2C#N)c1 | inconclusive [inhibitor, single point] | 
21 | CN(CC(=O)Nc1ccc(OC(F)F)cc1)S(=O)(=O)/C=C/c1ccccc1 | inconclusive [inhibitor, single point] | 
22 | O=C(Nc1ccc(N2CCN(C(=O)c3ccccc3)CC2)c(Cl)c1)c1ncn[nH]1 | inconclusive [inhibitor, single point] | 
23 | C=CCN1CCN(C(c2cccc(OC)c2OC)c2nnnn2CCC(C)C)CC1 (centres undefined) | active: 23.1 µM | 
24 | CCn1c(OC)nc2c1c(=O)n(C)c(=O)n2C |  | inactive: -15.8%
25 | O=C(NCCCn1ccnc1)c1cc(S(=O)(=O)N2CCOCC2)ccc1F |  | inactive: -9.02%

Row | SMILES | Potency | activity change, negative = growth inhibition
26 | COC(=O)c1cnn(-c2nc(OC)cc(OC)n2)c1C | inconclusive [inhibitor, single point] | 
27 | CCn1ncc(CN2CCN(Cc3cccc(OC)c3)C(CCO)C2)c1C (centres undefined) |  | inactive: -1.89%
28 | Cc1cc(NC(=O)CSc2nnc3c4c(C)c(C)sc4ncn23)no1 | active: 17.8 µM | 
29 | CCOC(=O)C1CCCN(C(=O)C2CCN(S(=O)(=O)c3ccc4ccccc4c3)CC2)C1 (centres undefined) | inconclusive [inhibitor, single point] | 
30 | CCC(=O)N1CCc2cc(Br)cc(S(=O)(=O)CCC(=O)Nc3cccc(Cl)c3)c21 | inconclusive [inhibitor, single point] | 
31 | N#C/C(=C\c1ccc(-c2ccccc2[N+](=O)[O-])o1)C(N)=O |  | inactive: 7.04%
32 | Cc1ccc2c(CN3CCN(c4ccccc4)CC3)cc(=O)oc2c1 |  | inactive: -14%
33 | COc1ccc(-c2nc3ccccn3c2NCc2ccc3c(c2)OCO3)cc1 | inconclusive [inhibitor, single point] | 
34 | O=C(COC(=O)COc1cccc(Br)c1)Nc1c(Cl)cccc1Cl |  | inactive: -6.16%
35 | CCN(C(=O)CSc1nnc(COc2cccc(C)c2)o1)c1nc(C)cs1 |  | inactive: -22.4%
36 | O=C1CCCC2=C1C(c1cn(-c3ccccc3)nc1-c1cccs1)c1c([nH]c(=O)[nH]c1=O)N2 (centres undefined) |  | inactive: 1.54%
37 | CCS(=O)(=O)N1CCCc2cc(C(=O)Nc3cccc(C(C)=O)c3)ccc21 | active: 25.9 µM | 
38 | COc1cc(NC(=O)c2cccc(Cl)c2Cl)ccc1NC(=O)c1cc2ccccc2o1 | active: 2.59 µM | 
39 | O=C(/C=C/c1cc([N+](=O)[O-])ccc1OC(F)F)Nc1cccc2ccccc12 | inconclusive [inhibitor, single point] | 
40 | O=S(=O)(c1cccc2nsnc12)N1CCc2ccccc21 |  | inactive: -20.7%
41 | CCNc1ncc2ncc(=O)n(CCc3ccccc3)c2n1 | inconclusive [inhibitor, partial curve] | 
42 | COc1ccccc1CNC(=O)C1CCN(S(=O)(=O)c2ccc3nc4c(c(C(=O)O)c3c2)CCCC4)CC1 |  | inactive: 29.1%
43 | Cn1c(SCC(=O)N/N=C/c2ccccn2)nnc1-c1ccccc1 |  | inactive: 0.533%
44 | COc1ccc(NC(=S)NC(=O)c2ccc(Br)o2)cc1 | inconclusive [inhibitor, full curve, poor fit] | 
45 | CCOc1ccc(Nc2ncnc3c2c(-c2ccccc2)cn3-c2cccc(C)c2)cc1 |  | inactive: -11.3%
46 | CC1CCc2ccc(F)cc2N1S(=O)(=O)c1cccs1 (centres undefined) |  | inconclusive: -32.5% [inhibitor]
47 | CCOc1ccccc1CN1CCN(Cc2ccc3cc(F)ccc3n2)CC1CCO (centres undefined) |  | inactive: -16.1%
48 | Clc1ccc(-c2nnn3c2nc(NC2CCCCC2)c2ccccc23)cc1 |  | inactive: -23.5%
49 | Cc1ccc(S(=O)(=O)N2CCSC2)cc1C |  | inconclusive: -31.4% [inhibitor]
